# Experimental data as given in the supplement of paper PMC8728848.
# This is one part of the list.
# B1: Gal 7 (Homo sapiens) (protein)
# chain: MSNVPHKSSLPEGIRPGTVLRIRGLVPPNASRFHVNLLCGEEGGSDAALHFNPRLDTSEVVFNSKEGGSWGREERGPGVPFGRGQPFEVLIIASDDGFKAVVGDAQYHHFRHRLPLARVRLVEVGGDVQLDSVRIF
# What was measured:
# Assay in all cases: glycan array binding signal (z-score within array); higher = stronger binding
# Conditions in all cases: glycan notation: IUPAC condensed, linker removed
# [1] = target: GalNAc(a1-3)GalNAc(b1-3)Gal(a1-4)Gal(b1-4)GlcNAc
# Procedure, shortened: (§1)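 The binding signal is a Z-score computed within each array and averaged over linkers. Arrays of the same protein sequence at different concentrations or buffers were also averaged together. Data originate from 3228 arrays in the Consortium for Functional Glycomics database, kept only where the protein sequence was available.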
# GalNAc(b1-3)Gal = target: GalNAc(b1-3)Gal
# Procedure, shortened: as §1
# [2] = target: GalNAc(b1-3)Gal(a1-4)Gal(b1-4)GlcNAc
# Procedure, shortened: as §1
# [3] = target: GalNAc(b1-3)Gal(a1-4)Gal(b1-4)GlcNAc(b1-3)Gal(b1-4)Glc
# Procedure, shortened: as §1
# [4] = target: GalNAc(b1-3)Gal(a1-6)Gal(b1-4)Glc
# Procedure, shortened: as §1
# GalNAc(b1-3)GalNAc = target: GalNAc(b1-3)GalNAc
# Procedure, shortened: as §1
# GalNAc(b1-3)GlcNAc = target: GalNAc(b1-3)GlcNAc
# Procedure, shortened: as §1
# GalNAc(b1-4)Gal(b1-4)Glc = target: GalNAc(b1-4)Gal(b1-4)Glc
# Procedure, shortened: as §1
# GalNAc(b1-4)GlcNAc = target: GalNAc(b1-4)GlcNAc
# Procedure, shortened: as §1
# [5] = target: GalNAc(b1-4)GlcNAc(b1-2)Man
# Procedure, shortened: as §1
# [6] = target: GalNAc(b1-4)GlcNAc(b1-2)Man(a1-3)[GalNAc(b1-4)GlcNAc(b1-2)Man(a1-6)]Man(b1-4)GlcNAc(b1-4)GlcNAc
# Procedure, shortened: as §1
# [7] = target: GalNAc(b1-4)GlcNAc(b1-3)GalNAc(b1-4)GlcNAc
# Procedure, shortened: as §1
# GalNAc(b1-4)GlcNAc6S = target: GalNAc(b1-4)GlcNAc6S
# Procedure, shortened: as §1
# GalNAc(b1-6)GalNAc = target: GalNAc(b1-6)GalNAc
# Procedure, shortened: as §1
# GalNAc3S(b1-4)GlcNAc = target: GalNAc3S(b1-4)GlcNAc
# Procedure, shortened: as §1
# GalNAc3S(b1-4)GlcNAc3S = target: GalNAc3S(b1-4)GlcNAc3S
# Procedure, shortened: as §1
# [8] = target: GalNAc3S(b1-4)[Fuc(a1-3)]GlcNAc
# Procedure, shortened: as §1
# GalNAc4S6S(b1-4)GlcNAc = target: GalNAc4S6S(b1-4)GlcNAc
# Procedure, shortened: as §1
# GalNAc6S(b1-4)GlcNAc = target: GalNAc6S(b1-4)GlcNAc
# Procedure, shortened: as §1
# Glc(a1-4)Glc = target: Glc(a1-4)Glc
# Procedure, shortened: as §1
# [9] = target: Glc(a1-4)Glc(a1-4)Glc(a1-4)Glc
# Procedure, shortened: as §1
# Glc(a1-6)Glc(a1-6)Glc = target: Glc(a1-6)Glc(a1-6)Glc
# Procedure, shortened: as §1
# [10] = target: Glc(a1-6)Glc(a1-6)Glc(a1-6)Glc
# Procedure, shortened: as §1
# Glc(b1-4)Glc = target: Glc(b1-4)Glc
# Procedure, shortened: as §1
# Glc(b1-6)Glc = target: Glc(b1-6)Glc
# Procedure, shortened: as §1
# GlcA(b1-3)Gal = target: GlcA(b1-3)Gal
# Procedure, shortened: as §1
# GlcA(b1-3)GlcNAc = target: GlcA(b1-3)GlcNAc
# Procedure, shortened: as §1
# GlcA(b1-6)Gal = target: GlcA(b1-6)Gal
# Procedure, shortened: as §1
# [11] = target: GlcA3S(b1-3)Gal(b1-4)GlcNAc(b1-2)Man
# Procedure, shortened: as §1
# [12] = target: GlcA3S(b1-3)Gal(b1-4)GlcNAc(b1-3)Gal(b1-4)Glc
# Procedure, shortened: as §1
# [13] = target: GlcNAc(a1-3)Gal(b1-4)GlcNAc
# Procedure, shortened: as §1
# [14] = target: GlcNAc(a1-4)Gal(b1-3)GlcNAc
# Procedure, shortened: as §1
# [15] = target: GlcNAc(a1-4)Gal(b1-4)GalNAc
# Procedure, shortened: as §1
# [16] = target: GlcNAc(a1-4)Gal(b1-4)GlcNAc
# Procedure, shortened: as §1
# [17] = target: GlcNAc(a1-4)Gal(b1-4)GlcNAc(b1-3)Gal(b1-4)Glc
# Procedure, shortened: as §1
# [18] = target: GlcNAc(a1-4)Gal(b1-4)GlcNAc(b1-3)Gal(b1-4)GlcNAc
# Procedure, shortened: as §1
# [19] = target: GlcNAc(a1-4)Gal(b1-4)GlcNAc(b1-3)Gal(b1-4)GlcNAc(b1-3)Gal(b1-4)GlcNAc
# Procedure, shortened: as §1
# [20] = target: GlcNAc(a1-4)Gal(b1-4)GlcNAc(b1-3)Gal(b1-4)[Fuc(a1-3)]GlcNAc(b1-3)Gal(b1-4)[Fuc(a1-3)]GlcNAc
# Procedure, shortened: as §1
# [21] = target: GlcNAc(a1-6)Gal(b1-4)GlcNAc
# Procedure, shortened: as §1
# [22] = target: GlcNAc(b1-2)Gal(b1-3)GalNAc
# Procedure, shortened: as §1
# [23] = target: GlcNAc(b1-2)Gal(b1-3)GlcNAc
# Procedure, shortened: as §1
# [24] = target: GlcNAc(b1-2)Man(a1-3)[GlcNAc(b1-2)Man(a1-6)]Man(b1-4)GlcNAc(b1-4)GlcNAc
# Procedure, shortened: as §1
# [25] = target: GlcNAc(b1-2)Man(a1-3)[GlcNAc(b1-2)Man(a1-6)]Man(b1-4)GlcNAc(b1-4)[Fuc(a1-6)]GlcNAc
# Procedure, shortened: as §1
# [26] = target: GlcNAc(b1-2)Man(a1-3)[GlcNAc(b1-4)][GlcNAc(b1-2)Man(a1-6)]Man(b1-4)GlcNAc(b1-4)GlcNAc
# Procedure, shortened: as §1
# [27] = target: GlcNAc(b1-2)Man(a1-3)[GlcNAc(b1-4)][GlcNAc(b1-2)Man(a1-6)]Man(b1-4)GlcNAc(b1-4)[Fuc(a1-6)]GlcNAc
# Procedure, shortened: as §1
binder,measurement,setting,value
B1,glycan array binding signal (z-score),[1],-0.308
same,glycan array binding signal (z-score),GalNAc(b1-3)Gal,-0.334
same,glycan array binding signal (z-score),[2],-0.303
same,glycan array binding signal (z-score),[3],1.77
same,glycan array binding signal (z-score),[4],-0.319
same,glycan array binding signal (z-score),GalNAc(b1-3)GalNAc,-0.241
same,glycan array binding signal (z-score),GalNAc(b1-3)GlcNAc,-0.26
same,glycan array binding signal (z-score),GalNAc(b1-4)Gal(b1-4)Glc,-0.135
same,glycan array binding signal (z-score),GalNAc(b1-4)GlcNAc,-0.291
same,glycan array binding signal (z-score),[5],-0.297
same,glycan array binding signal (z-score),[6],-0.082
same,glycan array binding signal (z-score),[7],-0.158
same,glycan array binding signal (z-score),GalNAc(b1-4)GlcNAc6S,-0.217
same,glycan array binding signal (z-score),GalNAc(b1-6)GalNAc,-0.332
same,glycan array binding signal (z-score),GalNAc3S(b1-4)GlcNAc,-0.326
same,glycan array binding signal (z-score),GalNAc3S(b1-4)GlcNAc3S,-0.264
same,glycan array binding signal (z-score),[8],-0.281
same,glycan array binding signal (z-score),GalNAc4S6S(b1-4)GlcNAc,-0.233
same,glycan array binding signal (z-score),GalNAc6S(b1-4)GlcNAc,-0.335
same,glycan array binding signal (z-score),Glc(a1-4)Glc,-0.293
same,glycan array binding signal (z-score),[9],-0.19
same,glycan array binding signal (z-score),Glc(a1-6)Glc(a1-6)Glc,-0.308
same,glycan array binding signal (z-score),[10],-0.074
same,glycan array binding signal (z-score),Glc(b1-4)Glc,-0.306
same,glycan array binding signal (z-score),Glc(b1-6)Glc,-0.292
same,glycan array binding signal (z-score),GlcA(b1-3)Gal,-0.315
same,glycan array binding signal (z-score),GlcA(b1-3)GlcNAc,-0.179
same,glycan array binding signal (z-score),GlcA(b1-6)Gal,-0.332
same,glycan array binding signal (z-score),[11],-0.267
same,glycan array binding signal (z-score),[12],-0.273
same,glycan array binding signal (z-score),[13],-0.362
same,glycan array binding signal (z-score),[14],-0.285
same,glycan array binding signal (z-score),[15],0.304
same,glycan array binding signal (z-score),[16],-0.085
same,glycan array binding signal (z-score),[17],-0.052
same,glycan array binding signal (z-score),[18],0.029
same,glycan array binding signal (z-score),[19],0.598
same,glycan array binding signal (z-score),[20],0.512
same,glycan array binding signal (z-score),[21],-0.337
same,glycan array binding signal (z-score),[22],-0.329
same,glycan array binding signal (z-score),[23],-0.382
same,glycan array binding signal (z-score),[24],-0.324
same,glycan array binding signal (z-score),[25],-0.155
same,glycan array binding signal (z-score),[26],-0.159
same,glycan array binding signal (z-score),[27],-0.253
